The text below walks through data of the supplement of paper PMC3334620.

In all, about 33,000 sequences were measured (“E-score (-0.5 to 0.5)”: median about -0.016, highest 2% from about 0.32 on). The list shows a part of the results.

The experiment has as its target T1, Stp1 (UniProt B3LFK1).
T1 sequence: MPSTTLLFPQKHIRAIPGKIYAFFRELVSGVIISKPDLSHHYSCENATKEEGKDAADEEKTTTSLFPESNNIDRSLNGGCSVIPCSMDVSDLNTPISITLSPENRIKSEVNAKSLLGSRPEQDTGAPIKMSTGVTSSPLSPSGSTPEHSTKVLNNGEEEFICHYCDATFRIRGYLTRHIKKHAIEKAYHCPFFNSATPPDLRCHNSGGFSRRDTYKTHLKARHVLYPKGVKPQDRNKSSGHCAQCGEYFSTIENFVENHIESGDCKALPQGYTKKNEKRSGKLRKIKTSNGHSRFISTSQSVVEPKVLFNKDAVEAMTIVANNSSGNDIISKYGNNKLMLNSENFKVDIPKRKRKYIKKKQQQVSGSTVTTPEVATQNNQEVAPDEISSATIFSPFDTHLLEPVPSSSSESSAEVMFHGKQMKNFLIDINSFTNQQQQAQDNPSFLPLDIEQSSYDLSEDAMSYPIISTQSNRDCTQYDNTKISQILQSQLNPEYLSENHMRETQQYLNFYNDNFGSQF
Kind of experiment: PBM E-score (8-mer binding enrichment) (E-score (-0.5 to 0.5)); higher = stronger / more preferred TF binding; most listed sequences are background and not binding sites. The following applies: protein concentration: 200 nM; construct: GST-full length. The essentials:
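Using PURExpress in vitro transcription/translation, GST-tagged yeast transcription factors were made in full-length or DNA-binding-domain form. These were applied at about 100-200 nM to double-stranded universal all-10-mer Agilent arrays, and bound protein was detected with fluorescent anti-GST. Scans were normalised with masliner before the Universal PBM Analysis Suite assigned E-scores to ungapped eight-base words pooled with their reverse complements.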
On to TATCTCCA, for which the “PBM E-score” value was 0.103.
As to AACCATAT, the “PBM E-score” value was found to be 0.0162.
CGGAGCGA: the “PBM E-score” value is 0.129.
In the case of GGTTAGGA it was -0.23.
In the case of AACAGCTT it was -0.113; in that of GGAGTAAA, 0.213.
The same measure for ATCGCGCC: 0.394; for ATTCGGGG: -0.0601; for ATAAGCTG: -0.0204.
CACCTGAC: the “PBM E-score” value is -0.078.
Take CGGCTCCC: the “PBM E-score” value came out at 0.187.
In the case of CGCGCTTC it was -0.0103; in that of GCCAAGAA, 0.0988; in that of TCTCAAAA, 0.179.
In the case of CAAGTGGC it was 0.229; in that of CTAGTATA, -0.0202.
The same measure for AGGGTACT: -0.135.
As to ATCCAGCG, the “PBM E-score” value is -0.05.
Take CGCACAAA: the “PBM E-score” value worked out at 0.178.
In the case of ACGAACCT it was 0.0573.
In the case of ATTCGGAA it was 0.11; in that of ACTCAGAG, 0.102.
The same measure for AGACTCAT: -0.164.
In the case of TAGACATA, the “PBM E-score” value worked out at 0.0107.
In the case of GGTGCGGA it was 0.148; in that of GAAGCCTC, 0.156; in that of TGAGTCCA, -0.0597.
In the case of AATGATGT it was -0.00207; in that of AACTACAA, 0.141; in that of AGTTCCGG, -0.207.
In the case of GCCTTACC it was 0.0896.
As to GCACCGTA, the “PBM E-score” value is 0.215.
The same measure for ACTCGGTG: -0.14; for CTCTTTCC: -0.363; for ACACGGAG: 0.295.
The same measure for CCTACTGA: -0.0981; for ATGTAACC: -0.00736; for CAGACAAC: 0.0536.
In the case of CGCGCTAC it was 0.117; in that of GGTCCCGA, -0.169.
Take GGGTTTCA: the “PBM E-score” value was -0.0207.
In the case of GCCGGATA it was 0.119; in that of TGTCAACA, 0.038; in that of ATAGCCTC, -0.0458.
In the case of AAACTTGG it was -0.0623; in that of AAGACTCC, -0.123; in that of ACTAGCCA, 0.00416.
Regarding CGGGTGTC, the “PBM E-score” value is -0.185.
For CAGCTTTA, the “PBM E-score” value came out at 0.00187.
The same measure for AGCGCCTA: 0.182; for CGAGTGTC: -0.138.
Regarding GTGGACAA, the “PBM E-score” value was 0.075.
In the case of AAGGGTCC it was -0.159; in that of CTATTACA, -0.0391.
The same measure for GGGTCGGA: -0.224; for ACTGGTGG: -0.24.
In the case of GAACCTCA, the “PBM E-score” value is -0.11.
In the case of CGATCGCC, the “PBM E-score” value stood at 0.158.
In the case of CCAGCTAC it was -0.343; in that of AAAGGAGC, -0.0255.
In the case of CACGCTAC it was -0.0658.
The same measure for GAAGTACA: -0.0313; for TAAGCCCA: -0.121.
For the sequence AACGTCCC, the “PBM E-score” value was -0.208.
In the case of TGGACCCA, the “PBM E-score” value was -0.121.
The same measure for AAGCGAGC: 0.0162; for AACCAATC: 0.0465.
Regarding GCAAGCGC, the “PBM E-score” value was -0.0956.
In the case of ACGAAAGT it was 0.146; in that of AAATGAGT, 0.0546.
The same measure for GGACACCC: -0.369; for GTGAAATA: 0.0371.
In the case of ATAAGAGA, the “PBM E-score” value stood at 0.132.
AACTTCAA: the “PBM E-score” value was 0.0846.
The same measure for CTACGCGA: -0.119; for ATAAAACC: 0.035; for CATGACAG: -0.0444.
In the case of ATACATAG it was 0.0689.
In the case of CATCGCAA it was -0.0548; in that of ACCTTCGA, -0.0752; in that of GGACAACA, 0.0294.
For ACACGACT, the “PBM E-score” value is -0.11.
The same measure for GAACCTGA: -0.106.
For CAGCTTAA, the “PBM E-score” value is -0.0511.
In the case of GGAAAGTA it was 0.00343; in that of CCCGTCAG, -0.322.
